# Source: PubChem BioAssay AID624255 (Broad Institute, 2012)
# The whole screen tested about 77,000 compounds, of which about 4,600 (6%) were called active. Inconclusive results, whose numbers are uncertain, are shown with a selection of clear calls.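 The calls were made as follows: active = mean inhibition above about 93%, with at least 55% of replicates each passing it (limit read from the data, passing the limit was not always enough); inconclusive = only one of those two conditions holds; inactive = neither condition holds.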
# Assay: T. cruzi intracellular proliferation inhibitors, primary screen, cell-based, beta-gal Tulahuen parasites, NIH3T3 host, luminescence (AID 624255)
# Details: T. cruzi beta-gal in NIH3T3, GalScreen luminescence, 90 h; at 8.34 µM; hits give high values
row,SMILES,inhibition
1,Cc1ccc(S(=O)(=O)N(C)C[C@H]2Oc3ccc(NC(=O)Nc4ccc(F)cc4)cc3C(=O)N([C@H](C)CO)C[C@@H]2C)cc1,inactive: 22.4%
2,CS(=O)(=O)N1[C@H](C#N)[C@H](c2ccc(C#CC3CCCCC3)cc2)[C@@H]1CO,inconclusive: 95.4%
3,COc1cccc(S(=O)(=O)N(C)C[C@@H]2Oc3cc(C#CCN(C)C)ccc3S(=O)(=O)N([C@H](C)CO)C[C@H]2C)c1,inconclusive: 98.7%
4,O=C(C[C@@H]1CC[C@H]2[C@@H](COC[C@@H](O)CN2C(=O)Nc2cccc(Cl)c2)O1)NCC1CCCCC1,inactive: 18.4%
5,COCC(=O)N1C[C@H](C)[C@@H](OC)CN(C)C(=O)c2ccc(NS(C)(=O)=O)cc2OC[C@@H]1C,inconclusive: 79.8%
6,Cc1noc(C)c1NC(=O)N(C)C[C@@H]1Oc2ccc(NS(=O)(=O)c3cccs3)cc2CC(=O)N([C@@H](C)CO)C[C@H]1C,inactive: 9.74%
7,C[C@@H](NC(=O)[C@H]1N[C@H]2c3ccc(-c4ccncc4)c(=O)n3C[C@H]2[C@@H]1CO)c1ccccc1,inactive: 58.3%
8,CCCC#Cc1ccc2c(c1)O[C@@H](CN(C)Cc1ccncc1)[C@@H](C)CN([C@H](C)CO)S2(=O)=O,active: 114%
9,CC(=O)N(C)C[C@H]1Oc2cc(C#CC3CCCCC3)ccc2S(=O)(=O)N([C@H](C)CO)C[C@@H]1C,inconclusive: 98.9%
10,CN1C[C@@H]2[C@H](c3ccccc31)[C@@H](CO)N2Cc1ccccc1,inactive: -1.24%
11,C[C@H](CO)N1C[C@H](C)[C@@H](CN(C)Cc2ccccc2)OCCCC[C@H](C)Oc2ccc(NC(=O)NC3CCCCC3)cc2C1=O,inconclusive: 86%
12,COCC(=O)N(C)C[C@H]1Oc2ncc(C#CC3(O)CCCC3)cc2C(=O)N([C@H](C)CO)C[C@H]1C,inactive: 8.47%
13,C[C@@H]1CCCCO[C@@H](CN(C)Cc2ccc(C(F)(F)F)cc2)[C@@H](C)CN([C@@H](C)CO)C(=O)c2cc(NC(=O)Nc3ccc(F)cc3)ccc2O1,active: 108%
14,COc1cccc(NC(=O)N(C)C[C@H]2Oc3cc(-c4ccccc4F)ccc3S(=O)(=O)N([C@H](C)CO)C[C@@H]2C)c1,inconclusive: 90.5%
15,CCS(=O)(=O)N1CCCCN2[C@@H](CO)[C@@H](c3ccc(-c4ccccc4)cc3)[C@@H]2C1,active: 93.7%
16,C[C@H]1CCCCO[C@H](CN(C)C(=O)Nc2ccc(C(F)(F)F)cc2)[C@@H](C)CN([C@@H](C)CO)C(=O)c2cc(NC(=O)NC3CCCCC3)ccc2O1,active: 109%
17,COc1ccc(S(=O)(=O)N2CCCCN3[C@@H](CO)[C@H](c4ccc(C5=CCCC5)cc4)[C@@H]3C2)cc1,inconclusive: 120%
18,C[C@@H]1CN([C@H](C)CO)C(=O)c2cccc(NC(=O)C3CC3)c2O[C@@H]1CN(C)C(=O)Nc1ccc(F)cc1,inactive: 26.1%
19,C[C@H]1CCCCO[C@H](CN(C)C(=O)C2CCCCC2)[C@@H](C)CN([C@@H](C)CO)C(=O)c2cc(NS(=O)(=O)c3ccc(Cl)cc3)ccc2O1,inconclusive: 108%

row,SMILES,inhibition
1,COc1ccc(C#Cc2ccc([C@@H]3[C@H](CO)N4CCCCN(Cc5ccccc5F)C[C@@H]34)cc2)cc1,inactive: 16.1%
2,C[C@@H]1CCCCO[C@H](CN(C)Cc2ccc3c(c2)OCO3)[C@H](C)CN([C@H](C)CO)C(=O)c2cc(NC(=O)Nc3ccc(C(F)(F)F)cc3)ccc2O1,inconclusive: 120%
3,CO[C@@H]1CN(C)C(=O)c2ccc(NC(=O)C3CCCCC3)cc2OC[C@@H](C)N(C(=O)Nc2ccc(C(F)(F)F)cc2)C[C@H]1C,inactive: 56.5%
4,COc1ccc(S(=O)(=O)Nc2ccc3c(c2)C(=O)N([C@H](C)CO)C[C@H](C)[C@H](CN(C)S(=O)(=O)c2cccs2)OCCCC[C@H](C)O3)cc1,inconclusive: 98.9%
5,COc1cccc(-c2ccc3c(c2)O[C@H](CN(C)C(=O)C2CCCCC2)[C@@H](C)CN([C@@H](C)CO)S3(=O)=O)c1,active: 97.1%
6,C[C@@H]1CN([C@@H](C)CO)C(=O)CCCn2cc(nn2)CO[C@H]1CN(C)C(=O)c1ccc(N2CCN(C)CC2)cc1,inconclusive: 102%
7,N#C[C@@H]1[C@@H](c2ccc(C#CC3(O)CCCC3)cc2)[C@@H](CO)N1C(=O)C1CCCCC1,active: 97.1%
8,C[C@@H]1CN([C@H](C)CO)C(=O)c2cccc(NC(=O)Nc3ccc4c(c3)OCO4)c2O[C@H]1CN(C)Cc1ccc(Cl)c(Cl)c1,inconclusive: 119%
9,COc1ccc(S(=O)(=O)Nc2ccc3c(c2)C(=O)N([C@H](C)CO)C[C@@H](C)[C@H](CN(C)CC2CC2)O3)cc1,inactive: 18.5%
10,Cc1ccc(S(=O)(=O)N(C)C[C@@H]2OCCCC[C@H](C)Oc3ccc(NS(=O)(=O)c4cn(C)cn4)cc3C(=O)N([C@H](C)CO)C[C@H]2C)cc1,inactive: 35.4%
11,O=C(NCC1CC1)[C@@H]1[C@@H](CO)[C@@H]2Cn3c(ccc(-c4ccccc4F)c3=O)[C@H]1N2Cc1cccnc1,inactive: -134%
12,CN1c2ccc(-c3ccc(C#N)cc3)cc2[C@H]2[C@H](CCN2S(=O)(=O)c2cccc(F)c2)[C@@H]1CO,inactive: 66.8%
13,C[C@H](CO)N1C[C@H](C)[C@@H](CN(C)Cc2ccc(C(F)(F)F)cc2)OCCCC[C@H](C)Oc2ccc(NS(=O)(=O)c3cccs3)cc2C1=O,inconclusive: 97.9%
14,O=S(=O)(c1ccc(F)cc1)N1CCCCN2[C@H](CO)[C@@H](c3ccc(-c4ccccc4F)cc3)[C@H]2C1,inactive: 84.7%
15,COc1cccc(-c2ccc([C@H]3[C@@H](CO)N(C(=O)Cc4ccccc4)[C@H]3C#N)cc2)c1,active: 96.7%
16,O=C(C[C@H]1C[C@H]2c3cc(NS(=O)(=O)c4ccccc4)ccc3O[C@H]2[C@H](CO)O1)NC1CCCCC1,inactive: -71.1%
17,O=C(N[C@H]1CC[C@H](CCNS(=O)(=O)Cc2ccccc2)O[C@H]1CO)c1ccc2c(c1)OCO2,inactive: 15.9%
18,C[C@@H]1CN([C@H](C)CO)C(=O)c2cc(-c3ccccc3)cnc2O[C@H]1CN(C)C,inconclusive: 97.8%
